Experimental data: PubChem BioAssay AID1460 (National Center for Advancing Translational Sciences (NCATS), 2008)
About 5,800 (2.1%) of roughly 270,000 compounds were called active. Inconclusive results, whose numbers are uncertain, are shown with a selection of clear calls. Calls follow the shape of the dose curve; as a rule, active = well fitted inhibition curve with a large enough effect; inconclusive = small, poorly fitted or top-dose-only effect; inactive = flat fitted curve, though single readings scatter. Potencies of inconclusive entries are doubtful fits and often do not repeat.

biological target: Microtubule-associated protein tau (Homo sapiens) (UniProt P10636); assay: qHTS for Inhibitors of Tau Fibril Formation, Thioflavin T Binding; conditions: recombinant tau K18 P301L (four-repeat tau fragment), heparin-induced fibrillization, ThT fluorescence; series mostly up to 57.4 µM; activity, negative = inhibition: at the top concentration; also: nearly all actives have a fitted effect of over 55% in size
Sequence of UniProt P10636 (P10636 whole entry, looked up, the tested form may be a part): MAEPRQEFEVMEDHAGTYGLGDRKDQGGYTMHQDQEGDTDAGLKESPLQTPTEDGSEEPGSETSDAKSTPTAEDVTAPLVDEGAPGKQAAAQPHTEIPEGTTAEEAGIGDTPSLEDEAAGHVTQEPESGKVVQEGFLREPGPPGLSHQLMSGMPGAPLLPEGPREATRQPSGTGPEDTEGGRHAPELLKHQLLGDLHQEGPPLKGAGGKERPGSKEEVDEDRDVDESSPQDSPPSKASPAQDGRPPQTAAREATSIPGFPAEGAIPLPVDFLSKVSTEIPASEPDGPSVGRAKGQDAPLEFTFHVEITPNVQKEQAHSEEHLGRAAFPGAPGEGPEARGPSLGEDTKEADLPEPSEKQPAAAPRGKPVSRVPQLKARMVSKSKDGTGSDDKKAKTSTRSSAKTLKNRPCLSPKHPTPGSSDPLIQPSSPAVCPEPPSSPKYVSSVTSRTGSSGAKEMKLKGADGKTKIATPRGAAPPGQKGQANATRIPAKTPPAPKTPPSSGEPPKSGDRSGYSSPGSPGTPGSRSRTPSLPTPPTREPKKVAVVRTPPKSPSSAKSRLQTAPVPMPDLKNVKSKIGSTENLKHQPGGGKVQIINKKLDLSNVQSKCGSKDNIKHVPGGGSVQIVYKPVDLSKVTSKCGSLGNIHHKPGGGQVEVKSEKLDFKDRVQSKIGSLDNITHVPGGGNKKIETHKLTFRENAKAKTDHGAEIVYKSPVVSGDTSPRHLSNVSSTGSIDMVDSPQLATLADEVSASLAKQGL
In short: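 Heparin-induced fibrillization of the P301L-mutant K18 repeat-domain fragment of human tau was followed by ThT binding in quantitative high-throughput format.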
% is scaled to controls: 0 for no effect and ±100 for the full control effect; potency is read from the fitted curve at half-maximal effect; tags tell the direction and shape of the fitted curve.

Compound	Potency	activity, negative = inhibition
O=C1/C(=C\c2cccnc2)CN(Cc2ccccc2)C/C1=C\c1cccnc1	active: 14.1 µM	
O=C(Nc1cccc(C(=O)N2CCN(c3ccccc3)CC2)c1)c1nsc2ccccc12	inconclusive: 5.01 µM [inhibitor, single point]	
O=C(N/N=C\c1ccc(O)c([N+](=O)[O-])c1)c1ccccc1-n1cccc1	inconclusive: 31.6 µM [inhibitor, single point]	
Fc1ccc(Nc2nc(-c3cccc(Cl)c3)c3c(n2)-c2ccccc2OC3)cc1	inconclusive: 2.24 µM [inhibitor, partial curve]	
Cc1ccc(NC(=O)CCn2nc(-c3ccccc3)c3ccccc3c2=O)c(C)c1		inactive: -16.3%
Cc1c(C(=O)Nc2ccccc2)sc2nc(-c3cc4ccccc4oc3=O)[nH]c(=O)c12		inactive: 3.77%
CCn1c(-c2ccccc2)csc1=Nc1ccc(O)cc1	inconclusive: 22.4 µM [inhibitor, partial curve]	
COc1cc(/C=N/NC(=O)c2cccs2)ccc1O	inconclusive: 11.2 µM [inhibitor, partial curve, poor fit]	
O=C(Cn1cnc2cc([N+](=O)[O-])ccc2c1=O)NCCc1ccc(F)cc1	inconclusive: 12.6 µM [inhibitor, partial curve]	
Cc1ccc(N/C=C/C(=O)c2ccccc2)cc1C	inconclusive: 3.16 µM [inhibitor, full curve]	
COc1ccc(C(=O)Nc2ccccc2)cc1S(=O)(=O)Nc1ccc(Br)cc1		inactive: 11.1%
CCn1c2ccccc2c2cc(NC(=O)C(C)C)ccc21	inconclusive: 20 µM [inhibitor, partial curve]	
Cc1cc(-n2c(C)cc(C(=O)CSc3nnnn3-c3ccccc3)c2C)no1	inconclusive: 0.282 µM [inhibitor, full curve, poor fit]	
CC(C)c1ccc(S(=O)(=O)c2nnn3c2nc(NCc2cccs2)c2sccc23)cc1	inconclusive: 7.08 µM [activator, partial curve, poor fit]	
COCCn1c(C(=O)N2CCCC2)cc2c1C[C@H]1CN(C(=O)c3ccccc3)[C@@](Cc3ccc(F)cc3)(C(=O)OC)[C@@H]21	inconclusive: 17.8 µM [inhibitor, single point]	
Cc1nn(C)cc1NC(=O)c1cc2nc(-c3ccco3)cc(C(F)(F)F)n2n1	inconclusive: 31.6 µM [inhibitor, partial curve]	
c1ccc2sc(SN3CCOCC3)nc2c1		inactive: -18%
COc1cccc(CN2CCN(C(=O)c3ccc(-c4ccccc4)cc3)CC2)c1	inconclusive: 12.6 µM [inhibitor, partial curve]	
COc1ccc(Cc2nc3ccc(C(=O)NCc4cc(Br)ccc4OC)cc3o2)cc1	inconclusive: 17.8 µM [inhibitor, partial curve]	
Fc1ccc(-c2noc3ncnc(N4CCCCC4)c23)cc1		inactive: -4.69%
CCc1c(C)nc2nncn2c1Nc1cccc(C)c1		inactive: 7.87%
CC1(C)CC(=O)C=C(NNC(=O)c2ccc(N)cc2)C1	inconclusive: 20 µM [inhibitor, single point]	

Compound	Potency	activity, negative = inhibition
S=c1[nH]nc(-c2cccs2)n1/N=C/c1cn(-c2ccccc2)nc1-c1ccccc1	inconclusive: 31.6 µM [inhibitor, single point]	
CCC(C)NC(=O)c1c(N)n(/N=C/c2ccccn2)c2nc3ccccc3nc12 (stereo not given)	inconclusive: 25.1 µM [inhibitor, partial curve]	
CCOC(=O)C1(CC2CCCCO2)CCN(Cc2nc3ccccc3[nH]2)CC1 (stereo not given)		inactive: -8.75%
O=C(O)c1ccccc1SC1CC(=O)N(C2CCCCC2)C1=O (stereo not given)		inactive: -10.3%
CCOC(=O)c1cc(-c2ccccc2)sc1NC(=O)CC(C)C	inconclusive: 44.7 µM [inhibitor, single point]	
COc1ccc(-c2cc(C(=O)Nc3ccc(S(=O)(=O)Nc4onc(C)c4C)cc3)c3ccccc3n2)cc1	inconclusive: 25.1 µM [inhibitor, single point]	
COc1ccc(/C=C/c2nc(N)nc(-c3ccccc3O)n2)cc1	inconclusive: 2.51 µM [inhibitor, full curve]	
Cc1cc(=O)[nH]c(-c2cccnc2)n1		inactive: -3.92%
CC1=C(C(=O)Nc2ccccc2)C(c2ccccc2Cl)n2ncc(C(=O)Nc3cccc(C)c3)c2N1 (stereo not given)		inactive: -9.76%
COc1ccc(Cl)cc1NC(=O)CSc1nc2ccccc2nc1N1CCCCC1	inconclusive: 3.98 µM [inhibitor, partial curve, poor fit]	
COc1ccc(N/C=C/C(=O)c2ccc(Cl)cc2)cc1	inconclusive: 2.82 µM [inhibitor, full curve]	
CCOC(=O)c1c(C)oc2ncnc(N3CCN(c4cccc(Cl)c4)CC3)c12	inconclusive: 10 µM [inhibitor, partial curve]	
CO/N=C/C(C#N)=C/c1ccc(OC)cc1	inconclusive: 25.1 µM [inhibitor, partial curve]	
COC(=O)c1ccc(COc2ccc(/C=N/N3CCN(C)CC3)cc2)cc1	inconclusive: 1.78 µM [inhibitor, full curve]	
CC(NC(=O)COC(=O)c1cc(NS(=O)(=O)c2ccc(Cl)c([N+](=O)[O-])c2)ccc1O)C1CC2CCC1C2 (stereo not given)	inconclusive: 8.91 µM [inhibitor, full curve]	
Cc1ccc(Oc2ncnc(N)c2[N+](=O)[O-])cc1	inconclusive: 22.4 µM [inhibitor, single point]	
CCC(C)C(=O)Nc1nc(C)c(-c2csc(Nc3cc(OC)ccc3OC)n2)s1 (stereo not given)	inconclusive: 15.8 µM [inhibitor, partial curve]	
CCn1c2ccccc2c2cc(/C=N/O)ccc21		inactive: -9.78%
N#C/C(=C/c1ccc(N2CCOCC2)o1)C(=O)N1CCOCC1	inconclusive: 12.6 µM [inhibitor, partial curve]	
CCN(CC)c1ccc2cc(C(N)=O)c(=N)oc2c1	inconclusive: 39.8 µM [activator, single point]	
COc1ccc2c(c1)OC/C(=C/c1ccc(OC)c(OC)c1)C2=O	active: 11.2 µM	
Cc1ccccc1CNC(=O)C1CCCN(c2nnc(-n3c(C)ccc3C)s2)C1 (stereo not given)	inconclusive: 35.5 µM [inhibitor, single point]	

Compound	Potency	activity, negative = inhibition
Cc1cc(C)c2c(n1)nn1c(C)c(CCC(=O)NCc3ccco3)c(C)nc21	inconclusive: 25.1 µM [inhibitor, single point]	
COc1ccc(NC(=O)C2CCN(c3nc(-c4ccc(OC)c(OC)c4)no3)CC2)cc1Cl	inconclusive: 15.8 µM [inhibitor, partial curve]	
C#CCOCCOCCOCCNc1nc(N2CCN(C(=O)[C@H]([C@@H](C)CC)n3cc([C@@H](N)CC(C)C)nn3)CC2)nc(N2CCN(C(=O)[C@H](Cc3cc4ccccc4[nH]3)n3cc([C@@H](N)CC(C)C)nn3)CC2)n1	inconclusive: 14.1 µM [inhibitor, partial curve]	
CCOC(=O)c1c(NC(=O)c2cc(=O)c3c(C)cc(C)cc3o2)sc2c1CCC2		inactive: -7.85%
COc1cccc2oc(-c3ccccc3)cc(=O)c12	inconclusive: 44.7 µM [inhibitor, partial curve, poor fit]	
O=C(CN1CCN(c2cccc(Cl)c2)CC1)Nc1nccs1		inactive: -1.75%
Oc1nc(Nc2cccc(Cl)c2)sc1/C=C1\C=Nc2ccccc21	active: 6.31 µM	
O=C1CCC/C1=C/Nc1ccc2c(c1)OCO2	inconclusive: 15.8 µM [inhibitor, partial curve]	
COc1ccc(CCC(=O)NCc2nc3cccnc3n2Cc2ccc(OC)cc2)cc1	inconclusive: 39.8 µM [activator, single point]	
COc1ccc2cnnc(SCC(=O)Nc3ccc(C(C)=O)cc3)c2c1OC	inconclusive: 39.8 µM [inhibitor, partial curve, poor fit]	
O=C(c1ccc(Cl)cc1)n1nc(-c2ccco2)nc1NCc1cccs1	inconclusive: 35.5 µM [inhibitor, single point]	
CCc1ccc(Oc2nc3c(C)cccn3c(=O)c2/C=C(\C#N)c2nc3ccccc3s2)cc1	inconclusive: 25.1 µM [inhibitor, single point]	
O=C(CCN1C(=O)/C(=C\c2ccccc2)SC1=S)NNC(=O)c1ccncc1	inconclusive: 0.178 µM [inhibitor, partial curve, poor fit]	
CN(C)c1ccccc1C(=O)c1ccccc1N(C)C	inconclusive: 39.8 µM [inhibitor, single point]	
Cc1ccc(S(=O)(=O)N2CCC(=O)N(C(COCc3cccc(Cl)c3)C(C)C)CC2)cc1 (stereo not given)	inconclusive: 14.1 µM [inhibitor, partial curve, poor fit]	
Cc1noc(C)c1COc1ccc(C(=O)OCC(=O)NC23CC4CC(CC(C4)C2)C3)cc1	inconclusive: 25.1 µM [inhibitor, single point]	
N#CC1=C(N)OC2=C(CN(Cc3ccccc3)C/C2=C\c2cccnc2)C1c1cccnc1 (stereo not given)	inconclusive: 28.2 µM [inhibitor, partial curve]	
CC(/C=C/c1ccc(C)o1)=C\C(=O)O	inconclusive: 25.1 µM [inhibitor, single point]	
CCOC(=O)C1=NN(C(=O)c2ccccc2)C(O)(c2ccc(C)cc2)C1 (stereo not given)	inconclusive: 20 µM [inhibitor, partial curve]	
CCN(CC)c1ncnc2scc(C3COc4ccccc4O3)c12 (stereo not given)	inconclusive: 39.8 µM [inhibitor, single point]	
COc1ccc(NC(=O)c2csc(Cc3ccccc3)n2)cc1	inconclusive: 17.8 µM [inhibitor, partial curve]	
